{"source": "patent US20060057694A1", "about": "“Rat receptor tyrosine knase, kdr” (priority 2003, published 2006)", "molecules": {"B1": {"name": "GST-RK7: GST-6xHis-tagged fusion of RK7, the intracellular kinase domain fragment of optimized rat KDR (SEQ ID NO:18) (protein)", "chain": "[about 200 residues omitted]SDPMGHHHHHHGRRRASVAAGILVPRGSPGLDGICSIEEFRPPWKRANEGELKTGYLSIVMDPDELPLDERCERLPYDASKWEFPRDRLKLGKPLGRGAFGQVIEADAFGIDKTATCKTVAVKMLKEGATHSEHRALMSELKILIHIGHHLNVVNLLGACTKPGGPLMVIVEFCKFGNLSTYLRGKRNEFVPYKSKGARFRSGKDYVGELSVDLKRRLDSITSSQSSASSGFVEEKSLSDVEEEEASEELYKDFLTLEHLICYSFQVAKGMEFLASRKCIHRDLAARNILLSEKNVVKICDFGLARDIYKDPDYVRKGDARLPLKWMAPETIFDRVYTIQSDVWSFGVLLWEIFSLGASPYPGVKIDEEFCRRLKEGTRMRAPDYTTPEMYQTMLDCWHEDPNQRPAFSELVEHLGNLLQANAQQDGKDYIVLPMSETLSMEEDSGLSLPTSPVSCMEEEEVCDPKFHYDNTAGISHYLQNSKRKSRPVSVKTFEDIPLEEPEVKVIPDDSQTDSGMVLASEELKTLEDRNKLSPSFGGMMPSKSRESVASEGSNQTSGYQSGYHSDDTDTTVYSSDEAGLLKLVDVAGHVDSGTTLRSSPV"}}, "key": {"[1]": {"system": "rat KDR intracellular domain", "test": "Autophosphorylation assay of rat KDR (Western blot, anti-PY antibody)", "assay_type": "biochemical", "details": "purified GST-tagged protein 2.5 μg/ml, 1 mM ATP, 25° C.", "protocol": "To determine the functional consequence of the substitution of an Asp residue at position 1083 of optimized rat KDR with Gly, as occurs in the published rat KDR sequence, RK7 (the fragment representing the intracellular domain of optimized rat KDR) was altered at position 1083 to contain a Gly (G) by site-directed mutagenesis. Both RK7 and the RK7(G1083) variant were expressed as GST-tagged fusion proteins in insect cells using a baculovirus system. The proteins were evaluated in terms of their abilities to autophosphorylate.\nPurified recombinant GST-tagged RK7 (2.5 μg/ml) and RK7 (G1083) (2.5 μg/ml) were pre-incubated separately at 25° C. for 10 min in 10 mM MgCl2, 2 mM MnCl2, 100 mM NaCl, 50 mM Tris-HCl (pH 7.2), 0.5 mg/ml BSA, 0.5 mM Na3VO4 and 0.5 mM TCEP (Tris[2-carboxyethylphosphine] hydrochloride (Pierce)) in two microcentrifuge tubes. The autophosphorylation reactions were initiated by addition of a small volume of 10 mM ATP to each of the tubes to yield a final ATP concentration of 1 mM. Aliquots were withdrawn from each of the reactions at various times and mixed immediately with an equal volume of 50 mM EDTA to stop the autophosphorylation reaction. The EDTA-containing samples were then mixed with 2× Tris-Glycine SDS sample buffer (Novex) containing 100 mM dithiothreitol and boiled for 5 min. The samples were electrophoresed on two 8% acrylamide-Tris-Glycine gels (Novex). […]"}, "[2]": {"system": "synthetic biotinylated peptide substrate (biotinylated EQEDEPEGDYFEWLE)", "test": "Tyrosine phosphorylation of a synthetic biotinylated peptide substrate (time-resolved fluorescence)", "assay_type": "biochemical", "details": "1 μM substrate, 10 μM ATP, serial-diluted enzyme, 35 min at room temperature", "protocol": "To further investigate the functional consequence of substitution of the Asp residue at position 1083 of the optimized rat KDR with Gly, as occurs in the published rat KDR sequence, purified GST-RK7 and RK7 (G1083) were evaluated in terms of their abilities to phosphorylate a synthetic biotinylated peptide substrate.\nA master reaction mix was prepared which contained 1 μM substrate (biotinylated EQEDEPEGDYFEWLE; SEQ ID NO:10), 10 μM ATP, 10 mM MgCl2, 2 mM MnCl2, 100 mM NaCl, 50 mM Tris-HCl (pH 7.2), 0.5 mg/ml BSA, 0.5 mM Na3VO4, and 0.5 mM TCEP. The master mix was distributed to the wells (50 μl per well) of a black 96-well plate. The kinase reactions were initiated by addition of 10 μl of GST-RK7 or GST-RK7 (G1083) pre-serial-diluted in the above buffer less the substrate and ATP. Each reaction was allowed to proceed for 35 min at room temperature with shaking and then stopped by addition of 50 μl of a quench buffer containing 0.8 μg/ml Eu(K)-PT-66 (an europium cryptate-labeled anti-phosphotyrosine antibody), 10 μg/ml streptavidin-XL665, 100 mM EDTA, 0.5 mM KF, 0.1% Triton X-100. The quenched reactions were incubated for 5 hours at room temperature and then read in Discovery (Packard), a time-resolved fluorescence detector."}}}
{"molecule": "B1", "values": [{"measurement": "ability to autophosphorylate", "setting": "[1]", "value": "rapid autophosphorylation"}, {"measurement": "tyrosine kinase activity on synthetic biotinylated peptide substrate", "setting": "[2]", "value": "tyrosine-phosphorylated the peptide substrate"}, {"measurement": "tyrosine kinase activity on synthetic biotinylated peptide substrate", "setting": "[2]; listed as RK7", "value": "able to tyrosine phosphorylate the synthetic peptide"}]}
